# From publication PMC6919601, “Identification of Plasmodium dipeptidyl aminopeptidase allosteric inhibitors by high throughput screening” (PLoS ONE, 2019)
# Hit rate of the full screen: of about 110,000 compounds, about 230 (0.21%) showed an effect of 50% or more. The list shows a part of the results.
# Target: DPAP1 (Plasmodium falciparum, UniProt Q8IIJ9)
# Experiment: primary screen, percent inhibition; read by cleavage of a fluorogenic dipeptide substrate; higher = more effect of the substance
# Design: species or system P. falciparum D10 trophozoite lysates; single well
# 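Note: 30 min substrate incubation versus DMSO and 10 µM JCP410 controls.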
# Chain of DPAP1 (Q8IIJ9 whole entry, looked up): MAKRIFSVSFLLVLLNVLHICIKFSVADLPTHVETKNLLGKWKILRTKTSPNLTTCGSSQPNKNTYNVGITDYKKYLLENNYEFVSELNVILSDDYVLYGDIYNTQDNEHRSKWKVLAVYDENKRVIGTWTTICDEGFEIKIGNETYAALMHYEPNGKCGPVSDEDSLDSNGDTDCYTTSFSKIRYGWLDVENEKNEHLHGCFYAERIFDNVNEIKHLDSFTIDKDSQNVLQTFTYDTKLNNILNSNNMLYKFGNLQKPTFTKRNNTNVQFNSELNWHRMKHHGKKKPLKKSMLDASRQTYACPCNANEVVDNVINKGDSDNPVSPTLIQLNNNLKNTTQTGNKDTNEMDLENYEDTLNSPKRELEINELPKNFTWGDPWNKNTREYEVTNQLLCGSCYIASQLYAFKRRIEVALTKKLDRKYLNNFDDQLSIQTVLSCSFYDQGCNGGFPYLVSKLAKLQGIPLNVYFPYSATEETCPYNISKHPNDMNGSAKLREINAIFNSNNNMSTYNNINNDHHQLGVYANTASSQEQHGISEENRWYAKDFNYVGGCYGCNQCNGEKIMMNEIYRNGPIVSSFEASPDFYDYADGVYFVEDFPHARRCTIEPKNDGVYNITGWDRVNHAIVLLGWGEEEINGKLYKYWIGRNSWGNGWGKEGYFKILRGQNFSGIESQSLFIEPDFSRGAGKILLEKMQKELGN
row,SMILES,% Inhibition @ 10 uM [%]
1,O=C(CCN1C(=O)c2cccc3cccc(c23)C1=O)N1CCN(C/C=C\c2ccccc2)CC1,5.39
2,COc1cc(CN2CCCCC2CO)cc2c1OCO2 (centres unmarked),-1.5
3,CC(C)Cc1cc(C(=O)O)[nH]n1,0.275
4,COc1ccc(C2CC3=NC(C)=C(C#N)C(c4ccc(N(C)C)cc4)C3=C(O)C2)cc1 (centres unmarked),-1.66
5,Cc1ccc(CCNC(=O)C2CCC(=O)N2CCc2ccccc2)cc1 (centres unmarked),3.24
6,COc1ccc(NC(=O)c2ccc3c(c2)C(=O)N(c2ccccc2OC)C3=O)cc1,-8.01
7,CC(=O)c1[nH]c2ccccc2c1C(=O)O,-2.14
8,N#CC1=C(/N=C/c2ccccc2O)CCC1,4.41
9,Cc1ccc(-n2nc3c(c2NC(=O)COc2ccc(Cl)cc2Cl)CS(=O)(=O)C3)c(C)c1,4.23
10,CCc1ccc(CNC(=O)CCC(=O)N2Cc3ccccc3Oc3ncccc32)cc1,-8.07
11,Cc1ccccc1OCCn1cccc1/C=C1\C(=N)N2N=C(N3CCCC3)SC2=NC1=O,-3.44
12,Cc1cc(C)n(S(=O)(=O)c2ccc(N)cc2)c(=O)n1,1.5
13,COc1ccc(C(=O)N2CCN(Cc3ccncc3)CC2)cc1OC,-4.7
14,O=S(=O)(Cc1ccccc1)N1CCC(Oc2cccc(C(F)(F)F)c2)CC1,2.29
15,Cc1ccc(-n2ncc(C(=O)NCCc3c[nH]c4ccccc34)c2-n2cccc2)cc1,-3.03
16,O=C(c1ccco1)N1CCN(c2nc3c(S(=O)(=O)c4ccccc4)nnn3c3ccccc23)CC1,-2.68
17,CC(C)CC(=O)Nc1c2c(nn1-c1cccc(Cl)c1)CS(=O)(=O)C2,-0.657
18,COc1ccc(C2C3=C(O)CCCC3=NC(C)=C2C(=O)Nc2ccccc2C)c(OC)c1 (centres unmarked),0.746
19,COc1ccc(-n2nnnc2C2CCN(S(=O)(=O)c3c(C)cc(C)cc3C)CC2)cc1,1.67
20,CC1CCN(S(=O)(=O)c2ccc(NC(=O)COc3ccc(Br)cc3)cc2)CC1,-1.61
21,Cc1ccc2cnn(CCCC(=O)NC3CCCCCC3)c2c1,-8.57
22,O=C(CSC1=NCCS1)N1CCN(c2ccccc2)CC1,-5.63
23,CSC1=NSC2=NC(=O)/C(=C\c3ccc(C(C)C)cc3)C(=N)N12,1.83
24,O=C(COc1ccccc1)Nc1ccc(S(=O)(=O)N2CCOCC2)cc1,0.727
25,CCO/C(O)=C1/C(C)=NC2=C(C(=O)CCC2)C1c1ccc(OCC)cc1 (centres unmarked),-8.79
26,Cc1ccc(-c2c(CN3CCOCC3)csc2C)cc1,4.65

row,SMILES,% Inhibition @ 10 uM [%]
1,Cc1ccccc1Cn1nc(C)c(NC(=O)c2c(C)nn(C(F)F)c2C)c1C,-0.545
2,O=C(C1CCCN(c2ncnc3onc(-c4ccc(F)cc4)c23)C1)N1CCc2ccccc2C1 (centres unmarked),-4.44
3,CCC(C(=O)NCCc1ccccc1OC)n1nc(C)c2sc3ccccc3c2c1=O (centres unmarked),4.79
4,CCOc1ccc(C(=O)NC2CC2)cc1,1.43
5,Cc1ccccc1CSc1nc(=O)c2c(n1C)NC(=O)CC2c1ccc(F)cc1F (centres unmarked),2.25
6,CCN(C(=O)c1cc2c(=O)n3ccccc3nc2n1C)c1ccccc1,5.17
7,COc1cc(CC(C)N2CCN(C(C)=O)CC2)ccc1O (centres unmarked),0.273
8,O=S(=O)(Nc1cccc(C(F)(F)F)c1)c1ccccc1Cl,-5.23
9,Cc1ccc(Cn2nnc3c(=O)n(C/C=C/c4ccccc4)cnc32)cc1,4.41
10,CC(NC(=O)c1noc2c1CCc1ccccc1-2)c1ccccc1 (centres unmarked),-5.09
11,O=C(CSc1c(O)nc2ccc(Cl)cc2c1-c1ccccc1)NCc1ccco1,0.561
12,Brc1ccc(OCc2nn3c(-c4ccncc4)nnc3s2)cc1,37.3
13,N#Cc1ccc(NC(=O)CSc2ccccn2)cc1,3.72
14,Cc1ccc2c(c1)C(=O)N(c1cccc(C(=O)O)c1)C2=O,4.05
15,Cc1ccc(NS(=O)(=O)c2ccc(F)cc2)cc1,0.526
16,CCN1CCC(N(CCO)Cc2ccccc2)CC1,-4.75
17,N#CCNC(=O)[C@H](Cc1ccccc1)NC(=O)c1cc(-c2ccccc2)c(-c2ccccc2)s1,15.8
18,COc1ccccc1C(=O)Nc1cc(C(F)(F)F)ccc1Br,-2.42
19,CCCN1C(=O)c2[nH]nc(-c3ccc(F)cc3)c2C1c1cccnc1 (centres unmarked),2.29
20,CC1(C)CC(=O)C(C(C2=C(O)CC(C)(C)CC2=O)c2c3ccccc3cc3ccccc23)C(=O)C1 (centres unmarked),1.7
21,Cc1cccc(CN2CCN(CC(=O)O)C2=O)c1,1.91
22,CC(C)C[C@@H](NC(=O)c1ccc(N2CCN(C)CC2)cc1)C(=O)NCC#N,0.173
23,O[C@H]1CC[C@H](NC2CCN(CCc3ccccc3)CC2)CC1,3.18
24,Cc1ccc(N2CC(C(=O)Nc3cccc(Cl)c3)CC2=O)cc1C (centres unmarked),2.25
25,N#CC1=C(SCC(N)=O)NC(=O)CC1c1cccc(Oc2ccccc2)c1 (centres unmarked),-1.64
26,CC(=O)c1sc(NC(=O)COc2ccc(Br)cc2)nc1C,-0.425

row,SMILES,% Inhibition @ 10 uM [%]
1,COc1cccc(CCN2CCC(CNS(=O)(=O)c3cc(-c4cc(C)no4)ccc3C)CC2)c1,-3.98
2,Cc1ccccc1NC(=O)CN1C(=O)S/C(=C/c2cccs2)C1=O,3.53
3,CC1=C(CCN2CCN(c3ccc(Cl)cc3)CC2)C(C)(C)CCC1,-1.41
4,COc1ccc(/C=C2\C(=O)NC(=O)N(C)C2=O)c(OC)c1OC,1
5,Cc1ccc(/C(N)=N/OC(=O)COc2ccc(C(C)C)cc2)cc1,1.75
6,CC(C)(C)N1CSC(COc2cccc3ccccc23)C1 (centres unmarked),-3.67
7,CCN(CC)S(=O)(=O)c1cnccc1N1CCN(C(C)C)CC1,-10.2
8,NC(=O)c1c(NC(=O)C2CCCN(C(=O)c3ccc4c(c3)OCCO4)C2)sc2c1CCCC2 (centres unmarked),5.43
9,N#CC1=C(N)N(c2ccc(Br)cc2F)C2=C(C(=O)CCC2)C1c1ccsc1 (centres unmarked),-9.55
10,Cc1cnc(NC(=O)c2c(O)c3ccccc3n(CC(C)C)c2=O)s1,-8.49
11,CCOC(=O)C1CCCN(C2C3CC4CC(C3)CC2C4)C1 (centres unmarked),-4.75
12,Cc1cc(C(=O)NCCCc2ccccc2)c2c(C)nn(-c3cccc(F)c3)c2n1,2.52
13,CC1Cc2c([nH]c3ccccc23)C(=O)N1 (centres unmarked),0.989
14,C=CCOc1c(Cl)cc(CNC2CCCCC2)cc1OC,4.42
15,Cc1c(C(=O)N2CCC3(CC2)OCCO3)sc2nc(-c3ccccc3)cn12,-3.7
16,CCCCNc1cc(=O)n(C)c(=O)n1C,9.1
17,Cc1cc(C)nc(NC(=O)OCc2ccccc2)n1,1.08
18,Cc1ccc(OCC(=O)Nc2ccc3c(c2)OCO3)c(C)c1,0.145
19,CC1CCc2c(sc(NC(=O)c3cccs3)c2C(=O)N2CCCCC2)C1 (centres unmarked),-1.5
20,Cc1ccc(-n2nnnc2SCCOc2ccc(C)c(C)c2)cc1,0.484
21,COc1ccccc1N1CCN(CCCN2CC(=O)N3CCCCC3C2=O)CC1 (centres unmarked),1.39
22,CN1C(=O)c2ccccc2C(C(=O)NCCc2ccsc2)C1c1cccs1 (centres unmarked),-2.37
23,O=C1CC(c2ccccc2C(F)(F)F)c2cc3c(cc2N1)OCO3 (centres unmarked),-3.09
24,COc1ccc2c(c1)c(C#N)c1n2CCN=C1N(C)C,-3.22
25,Cc1ccc(CS(=O)(=O)CCC(=O)NCc2ccccc2Cl)cc1,8.32
26,O=C1C2=C(N=C3C(=C(O)c4ccccc43)C23C(=O)Nc2ccccc23)c2ccccc21 (centres unmarked),3.79

row,SMILES,% Inhibition @ 10 uM [%]
1,Cc1cc(C)n2nc(SCC(=O)N3CCC4(CC3)OCCO4)nc2n1,0.955
2,Cc1c(/N=C(\S)NCCc2ccccc2)c(=O)n(-c2ccccc2)n1C,3.15
3,CC(Cc1ccc(F)cc1)N[C@H]1CC[C@H](O)CC1 (some centres unmarked),0.273
4,CC1COC(c2cccn2Cc2ccc(F)cc2Cl)=N1 (centres unmarked),-3.39
5,Cn1ccc(C#CCN2CCOCC2)n1,-4.26
6,O=C(O)c1ccc2c(c1)C(=O)N(c1cccc(/C=C/C(=O)c3cccc(N4C(=O)c5ccc(C(=O)O)cc5C4=O)c3)c1)C2=O,3.25
7,CC(C)(C)NS(=O)(=O)Nc1ccccc1[N+](=O)[O-],-4.96
8,CCOc1ccc(Cc2c(C)nc3c(C)cccc3c2Cl)cc1,-5.62
9,COCC1=Nc2ncnn2C(c2cc(Br)ccc2OC)/C1=C(/O)OC (centres unmarked),0.0842
10,CC12CN3CC(C)(CN(C1)C3c1ccccn1)C2O (centres unmarked),1.67
11,O=C1OCC/C1=C\c1ccc(O)cc1,-0.0217
12,O=C(CSc1ccccn1)Nc1ccc(F)c(F)c1,-4.48
13,CN(C)CCCO/N=C(\c1ccccc1)c1ccncc1,-2.42
14,O=c1c(O)c(-c2cccc(Cl)c2Cl)oc2ccccc12,-3.77
15,COc1cccc(OC)c1C(=O)N1CCCCC1,1.41
16,Cc1cccc(OCC(=O)Nc2nc(-c3ccc(S(=O)(=O)N4CCOCC4)cc3)cs2)c1,6.15
17,Cc1cccc2c1-c1sc(C(=O)NCCN3CCCCC3C)cc1CO2 (centres unmarked),-3.08
18,CCC1CCC(NCc2cccc(OC)c2OC)CC1 (centres unmarked),-1.78
19,Cc1ccc(-n2ncc3c(N4CCN(C)CC4)ncnc32)c(C)c1,3.36
20,CCCCc1c(C)nc2ccc(C(=O)O)cc2c1S,-3.77
21,CC(=O)Nc1ccc2c(c1)N(C(C)=O)c1ccccc1CC2,-4.54
22,Cc1cc(NC(=O)c2cncc(Br)c2)no1,8.75
23,COc1cc(C2c3c(oc4cc(C)cc(C)c4c3=O)C(=O)N2Cc2ccco2)ccc1O (centres unmarked),4.83
